Reference: patent US20230235080A1, “TROPHOBLAST CELL-SURFACE ANTIGEN-2 (TROP-2) ANTIBODIES” (Bionecure Therapeutics, Inc., priority 2020, published 2023)

Key:
[1] = test system: MDA-MB-468 breast cancer cells; assay: In vitro cytotoxicity of ADC, MDA-MB-468; type: cell-based; settings: FIG. 8A
Procedure: (§1) ADCs of the invention containing cytotoxic payloads may be used to kill target cells, such as killing cancer cells. For in vitro assay, MDA-MB-468, SK-BR-3, NCI-N87, Colo205, A549 were tested. All cell lines were cultured in a suitable culture medium at 37° C. in a humidified incubator atmosphere of 5% CO2. Cells were plated in 96-well flat bottom plates. Cell seeding number ranged from 500 cells/100 µl/ well to 6,000 cells/100 µl/well. Cells were allowed to adhere overnight at 37° C. in a humidified atmosphere of 5% CO2. A1X4-MMAE with DAR2, or DAR4, or DAR6 were prepared from stock solution and diluted into appropriated working concentration 24 hr after cell seeding. A serial ten-fold dilution for seven points was performed with culture medium. The final concentrations were ranging from 1000 nM to 0.001 nM. The cells were incubated with ADCs for 72 hours. Cell Counting Kit-8 solution (Dojindo China Co., Ltd, lot#PL701) was added to the wells for 1-4 hr at 37° C. and the absorbance at 450 nm was measured using a Microplate Reader (SpectraMax M5, Molecular Devices) and SoftMax Pro5.4.1 software. The percent of inhibition was calculated by the following formula: (average absorbance of treated samples/average absorbance of control samples) × 100. For all cellular assays, dose-response curves were generated using GraphPad Prism 7 three-parameter curve fitting. […]

[2] = test system: SK-BR-3 ovarian cancer cells; assay: In vitro cytotoxicity of ADC, SK-BR-3; type: cell-based; settings: SK-BR-3, moderate Trop-2 expression; FIG. 8A
Procedure: as §1

N87 gastric cancer cells = assay: In vitro cytotoxicity of ADC, NCI-N87; type: cell-based; settings: NCI-N87, moderate Trop-2 expression; FIG. 8A
Procedure: as §1

[3] = test system: Colo205 colon cancer cells; assay: In vitro cytotoxicity of ADC, Colo205; type: cell-based; settings: Colo205, low Trop-2 expression; FIG. 8A
Procedure: as §1

NCI-N87 xenograft = NCI-N87 xenograft model in BALB/c nude mice; type: in vivo, mouse; settings: single administration at 5.0 mg/kg, intravenously
Procedure: (§2) The anti-tumor activities of anti-Trop-2-vc-MMAE ADCs were assessed using Trop-2-positive MDA-MB-468 and NCI-N87 xenograft models in mouse subjects. Five millions NCI-N87 cells were harvested from culture flasks, and implanted subcutaneously into the right flank of 6- to 7-week-old BALB/c nude mice. Tumors were measured twice a week throughout the course of the experiments, with tumor volume calculated using the following formula: tumor volume (mm^3) = (length x width^2)/2.
The ADCs tested in NCI-N87 model were conjugated with different DARs: Benchmark hRS7-MMAE had DAR of 4.33, A1X4-MMAE had DAR of 6.1, and A1,2X4-MMAE had DAR of 5.8. Therefore, the dose administered for each ADC was adjusted to ensure the same amount of payload. As such, Benchmark hRS7-MMAE, A1X4-MMAE or A1,2X4-MMAE was administered at 0.5 mg/kg, 1.0 mg/kg and 1.5 mg/kg. ADCs were administered intravenously as a single bolus dose.

MDA-MB-468 xenograft = MDA-MB-468 xenograft model in BALB/c nude mice; type: in vivo, mouse
Procedure: To compare the in vivo anti-tumor activities of ADCs with different DARs, A1X4-MMAE DAR2, A1X4-MMAE DAR4, A1X4-MMAE DAR6 were tested in MDA-MB-468 xenograft model. MDA-MB-468 cells were harvested from culture flasks and mixed with Matrigel (1:1). Five millions cells were implanted subcutaneously into the right flank of 6- to 7-week-old BALB/c nude mice. After tumors were established, mice were divided into groups randomly based on the tumor volume. ADCs were administered intravenously at 1.5 mg/kg as a single bolus dose. Tumors were measured twice a week throughout the course of the study, with tumor volume calculated using the following formula: tumor volume (mm^3) = (length x width^2)/2. Data were analyzed by GraphPad Prism 7 and presented as mean + standard deviation. Statistical analysis was performed with one-way ANOVA.
as §2
To further compare the antitumor activities of different ADCs, A1X4-MMAE and A1,2X4-MMAE were tested head to head in the MDA-MB-468 xenograft model. All ADCs were administered at 1.5 mg/kg single dose.
The impact of dosing regimen on antitumor activity of anti-Trop-2 ADC was evaluated by comparing single and fractionated dosing schedules of A1,2X4-MMAE in Trop-2-positive MDA-MB-468 xenograft model. Three dosing regimens were tested which included 1) one single dose at 1.5 mg/kg; 2) two doses at 0.75 mg/kg given every 7 days; 3) four doses at 0.375 mg/kg given twice weekly.

[4] = test system: Trop-2-positive MDA-MB-468 cells; assay: Transwell coculture cell killing assay, Trop-2-positive cells; type: cell-based; settings: 1, 10, and 100 nM; 72 hours
Procedure: (§3) Bystander killing effect has been observed for some ADCs in the preclinical studies. It could not only affect antigen-expressing tumor cells but also adjacent antigen-negative cells through the transfer of released payload from the antigen-expressing cells to the neighboring antigen-negative cells. In order to confirm whether A1,2X4-MMAE induce bystander killing, a transwell coculture cell killing assay was carried out. The Trop-2-positive MDA-MB-468 cells were plated at the bottom of the plate at the density of 3,000 cells/500 µl/ well. Cell culture inserts (Thermo, cat#140627) were inserted and the Trop-2-negative MDA-MB-231 cells were seeded in the inserts at the same density as MDA-MB-468. After 24 hr incubation, A1,2X4-MMAE was added to MDA-MB-468 cells in the bottom well at concentrations of 1, 10, and 100 nM, and incubated for 72 hours. MDA-MB-468 and MDA-MB-231 cell cytotoxicity was measured by Cell Counting Kit-8 as described in Example 7. The percent of inhibition was calculated by the following formula: (average absorbance of treated samples/average absorbance of control samples) × 100.

[5] = test system: Trop-2-negative MDA-MB-231 cells; assay: Transwell coculture cell killing assay, Trop-2-negative cells (bystander killing); type: cell-based; settings: 1, 10, and 100 nM, 72 hours
Procedure: as §3

Row | Molecule | IC50 [1] | IC50 [2] | IC50 (N87 gastric cancer cells) | IC50 [3] | anti-tumor activity, N87 xenograft (FIG. 10A) (NCI-N87 xenograft) | anti-tumor activity, MDA-MB-468 xenograft head to head (FIG. 10B) (MDA-MB-468 xenograft; 1.5 mg/kg single dose) | anti-tumor activity by dosing regimen (FIG. 11) (MDA-MB-468 xenograft; four doses at 0.375 mg/kg given twice weekly) | anti-tumor activity by dosing regimen (FIG. 11) (MDA-MB-468 xenograft; one single dose at 1.5 mg/kg) | inhibition of MDA-MB-468 cell proliferation (FIG. 9) [4] | effect on MDA-MB-231 cells alone (FIG. 9) ([5]; MDA-MB-231 alone) | cell killing under coculture of MDA-MB-468 and MDA-MB-231 (bystander killing, FIG. 9) ([5]; coculture condition)
1 | A1X4-MMAE: A1X4 antibody conjugated to MMAE via mc-vc-PABA (valine-citrulline) linker (conjugate) heavy: QVQLQESGPGLVKPSETLSLTCTVSGFSLTSYGVNWIRQPPGKGLEWIGVMWAGGSTNYNSALMSRVTISVDTSKNQFSLKLSSVTAADTAVYYCARDENWDGAWFAYWGQGTLVTVSSASTKGPSVFPLAPSSKSTSGGTAALGCLVKDYFPEPVTVSWNSGALTSGVHTFPAVLQSSGLYSLSSVVTVPSSSLGTQAYICNVNHKPSNTKVDKKVG[left out - human IgG1 Fc with K334R T359A (EU numbers)] light: DIVMTQSPDSLAVSLGERATINCKSSQSLLNSGTRKNYLAWYQQKPGQPPKLLISWASSRESGVPDRFSGSGSGTDFTLTISSLQAEDVAVYYCKQSYNLFTFGGGTKVEIKRTVAAPSVFIFPPSDEQLKSGTASVVCLLNNFYPREAKVQWKVDNALQSGNSQESVTEQDSKDSTYSLSSTLTLSKADYEKHKVYACEVTHQGLSSPVTKSFNRGEC | single-digit | single-digit | single-digit | weakest activity | durable tumor regression | – | – | – | – | – | –
2 | A1,2X4-MMAE: A1,2X4 antibody conjugated to MMAE via mc-vc-PABA (valine-citrulline) linker (conjugate) heavy: QVQLQESGPGLVKPSETLSLTCTVSGFSLTSYGVNWIRQPPGKGLEWIGVMWAGGSTNYNSALMSRLTISKDTSKNQFSLKLSSVTAADTAVYYCARDENWDGAWFAYWGQGTLVTVSSASTKGPSVFPLAPSSKSTSGGTAALGCLVKDYFPEPVTVSWNSGALTSGVHTFPAVLQSSGLYSLSSVVTVPSSSLGTQAYICNVNHKPSNTKVDKKVG[left out - human IgG1 Fc with K334R T359A (EU numbers)] light: DIVMTQSPDSLAVSLGERATINCKSSQSLLNSGTRKNYLAWYQQKPGQPPKLLISWASSRESGVPDRFSGSGSGTDFTLTISSLQAEDVAVYYCKQSYNLFTFGGGTKVEIKRTVAAPSVFIFPPSDEQLKSGTASVVCLLNNFYPREAKVQWKVDNALQSGNSQESVTEQDSKDSTYSLSSTLTLSKADYEKHKVYACEVTHQGLSSPVTKSFNRGEC | – | – | – | – | durable tumor regression | more effective than A1X4-MMAE | better tumor growth inhibition than weekly fractionated doses of 0.75 mg/kg | most effective | effectively inhibited | had no effect | killed both cells
